{"source": "PubChem BioAssay AID686979", "about": "(National Center for Advancing Translational Sciences (NCATS), 2013)", "note": "Values joined by “and” are separate entries in the source; they are usually repeats but may differ in a detail not shown here. Identical values can stand only once. Screen size: about 420,000 compounds; about 50,000 (12%) were called active. Inconclusive means that the source gave no clear call. Such entries were picked first, then a sample of the others. Calls follow the shape of the dose curve; as a rule, active = well fitted inhibition curve with a large enough effect; inconclusive = small, poorly fitted or top-dose-only effect; inactive = flat fitted curve, though single readings scatter. Where the call is inconclusive, the potency comes from a doubtful curve fit. % is scaled to controls: 0 for no effect and ±100 for the full control effect; potency is read from the fitted curve at half-maximal effect; tags tell the direction and shape of the fitted curve.", "data": [{"experiment": "qHTS for Inhibitors of human tyrosyl-DNA phosphodiesterase 1 (TDP1): qHTS in cells in presence of CPT; also: nearly all actives have a fitted effect of over 55% in size", "details": "chicken DT40 Tdp1-/-;hTDP1 cells + 20 nM CPT, ATP luminescence, 48 h; activity change, negative = growth inhibition: at 46.2 µM (top of the series) unless noted", "method_in_brief": "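Chicken DT40 Tdp1-/- cells complemented with human TDP1, 400 cells/well, exposed to compounds plus 20 nM camptothecin for at least 48 h at 37 C; viability read as ATP content by CellTiter-Glo luminescence.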", "values": [{"smiles": "CCCCCCCCCCCCCCCC[N+](C)(C)C", "Potency": "active: 1.19 µM and active: 146 nM and active: 2.31 µM"}, {"smiles": "Cc1ccc2cc(C=C(C#N)C#N)c(Cl)nc2c1", "Potency": "active: 2.06 µM"}, {"smiles": "CCCCc1ncc(CN2CCCC(C(=O)c3ccc(SC)cc3)C2)[nH]1", "note": "(centres undefined)", "Potency": "inconclusive: 10.3 µM [inhibitor, partial curve, poor fit]"}, {"smiles": "CCN(CC)C(=O)c1ccc(NC(=S)NC(=O)CCc2ccccc2)cc1", "Potency": "inconclusive: 16.4 µM [inhibitor, single point]"}, {"smiles": "O=c1[nH]c(=O)n(Cc2ccccc2)c(O)c1C=NCCN1CCOCC1", "activity change, negative = growth inhibition": "inactive: -0.0296%"}, {"smiles": "CC1=Nc2cc(C(=O)N3CCC4(CC3)OCCO4)ccc2Sc2ccc(Cl)cc21", "Potency": "inconclusive: 25.9 µM [inhibitor, single point]"}, {"smiles": "COC(=O)C1=C(c2ccccc2)C[C@@H]2CC[C@H]1N2C(=O)NCc1ccc(C(F)(F)F)cc1", "Potency": "inconclusive: 29.1 µM [inhibitor, single point]"}, {"smiles": "c1ccc(-c2ccc3c(c2)CNCc2cnnn2-3)cc1", "activity change, negative = growth inhibition": "inactive: -24.6%"}, {"smiles": "N#Cc1cn(C2OC(CO)C(O)C2O)c2ncnc(N)c12", "note": "(centres undefined)", "Potency": "active: 0.0146 µM"}, {"smiles": "Cc1ccc(-c2nc3ccccc3c(=O)n2-c2ccc(Br)cn2)cc1", "Potency": "inconclusive: 25.9 µM [inhibitor, single point]"}, {"smiles": "CCOc1ccc(NC(=O)c2c(O)[nH]c(=O)[nH]c2=O)cc1", "Potency": "active: 23.1 µM"}, {"smiles": "O=C(O)c1ccc2c(c1)C1C(Cl)C(Sc3ccccc3[N+](=O)[O-])CC1C(c1cccc([N+](=O)[O-])c1)N2", "note": "(centres undefined)", "activity change, negative = growth inhibition": "inactive: -17.2%"}, {"smiles": "CCOc1ccc(CCNC(=O)c2cnc3sc(N4CCCC4)nn3c2=O)cc1", "Potency": "active: 6.51 µM"}, {"smiles": "Cc1ccccc1-n1nc(C)c2c1NC(=O)CSC2c1ccccc1C(F)(F)F", "note": "(centres undefined)", "Potency": "active: 25.9 µM"}, {"smiles": "O=C(c1cc(F)ccc1F)C1CCCN(CCCc2ccccc2)C1", "note": "(centres undefined)", "Potency": "inconclusive: 29.1 µM [inhibitor, single point]"}, {"smiles": "O=C1/C(=C\\c2ccccc2)C2OCC=C3CN4CCC56c7ccccc7N1C5C2C3CC46", "note": "(centres undefined)", "Potency": "active: 20.6 µM"}, {"smiles": "CC(=O)N1CC[N+](C)(C)CC1", "Potency": "inactive"}, {"smiles": "O=c1ccc2cc(OC3OC(CO)C(O)C(O)C3O)c(O)cc2o1", "note": "(centres undefined)", "Potency": "inconclusive: 13.3 µM [inhibitor, single point]"}, {"smiles": "C/C(=N\\OC(=O)NC(C)C)c1sc(-c2ccc(Cl)cc2)nc1C", "Potency": "inconclusive: 29.1 µM [inhibitor, single point]"}, {"smiles": "Cc1cc(C)cc(NC(=S)NC2CC3CCC(C2)N3Cc2ccco2)c1", "note": "(centres undefined)", "Potency": "inconclusive: 23.1 µM [inhibitor, single point]"}, {"smiles": "CCCNC(=O)c1c(N)n(Cc2ccco2)c2nc3ccccc3nc12", "Potency": "active: 23.1 µM"}, {"smiles": "COc1cc(C(=O)NN=Cc2ccc(N(CCCl)CCCl)cc2)cc(OC)c1OC", "Potency": "inconclusive: 29.1 µM [inhibitor, single point]"}, {"smiles": "Cc1c(NC(NC(=O)CF)C(Cl)(Cl)Cl)c(=O)n(-c2ccccc2)n1C", "note": "(centres undefined)", "activity change, negative = growth inhibition": "inactive: 5.67%"}, {"smiles": "COC(=O)C1=C(c2ccc(Cl)c(C(F)(F)F)c2)C[C@@H]2CC[C@H]1N2C(=O)NCc1ccco1", "Potency": "inconclusive: 29.1 µM [inhibitor, single point]"}, {"smiles": "CCN1CCN(c2ccc(N)c(C)c2)CC1", "Potency": "inconclusive: 29.1 µM [inhibitor, single point]"}, {"smiles": "COc1ccccc1CN1CCN(C(=O)COc2cccc(C)c2)CC1", "Potency": "inconclusive: 29.1 µM [inhibitor, single point]"}, {"smiles": "CC12CN3CC(c4ccccc4)(CN(C1)C31CCCCC1)C2=O", "activity change, negative = growth inhibition": "inactive: 13.7%"}, {"smiles": "COc1ccccc1OP(=O)(Nc1ccc(Br)cc1)Oc1ccccc1OC", "Potency": "inconclusive: 18.4 µM [inhibitor, single point]"}, {"smiles": "Cc1ccc(/C(CSc2nccn2-c2ncc(C(F)(F)F)cc2Cl)=N\\O)cc1", "Potency": "inconclusive: 29.1 µM [inhibitor, single point]"}, {"smiles": "CN1CCCN(C(=O)COc2ccc(F)cc2F)CC1", "activity change, negative = growth inhibition": "inactive: 18%"}, {"smiles": "COC(=O)C1=C(c2ccc(Cl)c(C(F)(F)F)c2)C[C@@H]2CC[C@H]1N2C(=O)N1CCOCC1", "Potency": "active: 6.51 µM"}, {"smiles": "COc1ccc(C2C(C#N)=C(N)Oc3n[nH]c(C)c32)cc1Cn1cc([N+](=O)[O-])cn1", "note": "(centres undefined)", "Potency": "inconclusive: 16.4 µM [inhibitor, single point]"}, {"smiles": "COc1cc2c(c(OC)c1OC)-c1ccc(OC)c(=O)cc1[C@@H](NC(C)=O)CC2", "Potency": "active: 66.8 nM and active: 266 nM and active: 16.4 nM"}, {"smiles": "O=C1NC(=O)C2(Cc3ccccc3N3CCOCC32)C(=O)N1c1ccccc1", "note": "(centres undefined)", "Potency": "inconclusive: 35.5 µM [inhibitor, single point]"}, {"smiles": "CCCCCn1c(=O)c(C(=O)NCCc2ccccc2)c(O)c2ccccc21", "Potency": "inconclusive: 29.1 µM [inhibitor, single point]"}, {"smiles": "CCn1cc(C(=O)O)c(=O)c2cc(F)c(N3CCNCC3)cc21", "Potency": "inconclusive: 29.1 µM [inhibitor, single point] and inconclusive: 12.8 µM [inhibitor, single point]"}, {"smiles": "CN1C2CCC1C(C(=O)O)C(O)C2", "note": "(centres undefined)", "activity change, negative = growth inhibition": "inactive: -22.5%"}, {"smiles": "c1ccc(-c2nc(N3CCOCC3)s[n+]2-c2ccccc2)cc1", "Potency": "active: 14.6 µM"}, {"smiles": "COc1ccc(-n2c(-c3ccccc3Br)nc3ccccc3c2=O)cc1", "Potency": "inconclusive: 25.9 µM [inhibitor, single point]"}, {"smiles": "COc1ccc(C(=O)Nc2ccc(S(=O)(=O)N(Cc3ccccc3)c3ccccc3)cc2)cc1", "Potency": "active: 13 µM"}, {"smiles": "COc1ccc(-c2nn3c(=O)cc(CN4CCN(S(=O)(=O)c5ccc(C)cc5)CC4)nc3s2)cc1", "Potency": "active: 20.6 µM"}, {"smiles": "COc1ccc(-n2nnnc2C(c2ccnc3ccccc23)N2CCC(n3c(=O)[nH]c4ccccc43)CC2)cc1", "note": "(centres undefined)", "Potency": "inconclusive: 18.4 µM [inhibitor, single point]"}, {"smiles": "C/C=C(\\C)C(=O)OC1CC(OC(C)=O)[C@@]2(C(=O)OC)COC3C2[C@@]12CO[C@](O)(C(=O)OC)C2[C@](C)(C12OC1(C)C1CC2OC2OC=C[C@]21O)C3O", "note": "(some centres undefined)", "activity change, negative = growth inhibition": "inactive: 9.45%"}, {"smiles": "CC(=O)O[C@@]12CO[C@@H]1C[C@H](OC1OCC(O)C(O)C1O)[C@@]1(C)C(=O)[C@H](O)C3=C(C)[C@@H](OC(=O)[C@H](O)[C@@H](NC(=O)c4ccccc4)c4ccccc4)C[C@@](O)([C@@H](OC(=O)c4ccccc4)C12)C3(C)C", "note": "(some centres undefined)", "Potency": "active: 1.16 µM"}, {"smiles": "CN(Cc1ccc(OC(F)F)cc1)C(=O)c1ccccc1Sc1ccccc1C#N", "Potency": "inconclusive: 29.1 µM [inhibitor, single point]"}, {"smiles": "COP(=O)(OC)c1nc(-c2ccc([N+](=O)[O-])cc2)oc1N1CCCCC1", "Potency": "inconclusive: 25.9 µM [inhibitor, single point]"}, {"smiles": "CC1=C(C(=O)Nc2ccccc2)S(=O)(=O)CCO1", "Potency": "inconclusive: 29.1 µM [inhibitor, single point]"}, {"smiles": "CC(Cc1ccccc1)NCc1ccccc1Cl", "note": "(centres undefined)", "Potency": "inconclusive: 29.9 µM [inhibitor, single point]"}, {"smiles": "COc1ccc(C(=O)C2CCCN(Cc3ccc(C)s3)C2)cc1OC", "note": "(centres undefined)", "Potency": "inconclusive: 25.9 µM [inhibitor, single point]"}, {"smiles": "CN1C(=O)CN=C(c2ccccc2)c2cc(Cl)ccc21", "Potency": "inconclusive: 29.9 µM [inhibitor, single point]"}, {"smiles": "Cc1ccc(NC(=O)CN(C)CC(=O)Nc2cccc(F)c2)cc1[N+](=O)[O-]", "Potency": "active: 1.84 µM"}, {"smiles": "O=P(Oc1ccc(-c2ccccc2)cc1)(N1CC1)N1CC1", "Potency": "active: 2.06 µM"}, {"smiles": "Cc1ccc(C2(O)CN3CCC2CC3)cc1", "note": "(centres undefined)", "activity change, negative = growth inhibition": "inactive: 20.5%"}, {"smiles": "CC1=C2CCC3C(CCC4=CC(=O)CCC43C)C2CC1", "note": "(centres undefined)", "Potency": "inconclusive: 18.4 µM [inhibitor, single point]"}, {"smiles": "O=c1c2ccccc2nc(Cc2ccccc2)n1-c1ccccc1", "Potency": "inconclusive: 29.1 µM [inhibitor, single point]"}, {"smiles": "c1ccc(Nc2cccc3ccccc23)cc1", "Potency": "inconclusive: 29.1 µM [inhibitor, single point]"}, {"smiles": "CC(C)OP(=O)(OC(C)C)C(NCc1ccccc1)c1ccccc1", "note": "(centres undefined)", "Potency": "inconclusive: 29.1 µM [inhibitor, single point]"}, {"smiles": "COc1ccc2c(c1OC)CN1CCc3cc4c(cc3C1C2)OCO4", "note": "(centres undefined)", "Potency": "active: 20.6 µM"}, {"smiles": "Cc1ccc(S(=O)(=O)Nc2cc(C(=O)N3CCC4(CC3)OCCO4)ccc2N2CCCCC2)cc1", "Potency": "inconclusive: 29.1 µM [inhibitor, single point]"}, {"smiles": "Cc1nc2ccccc2c(=O)n1-c1ccc(Cl)c(Cl)c1", "Potency": "inconclusive: 5.17 µM [inhibitor, single point]"}, {"smiles": "C#C[C@]1(O)CC[C@H]2[C@@H]3[C@H](O)C[C@H]4C[C@@H](O)CC[C@]4(C)[C@H]3CC[C@@]21C", "activity change, negative = growth inhibition": "inactive: -23.5%"}, {"smiles": "CCOC(=O)c1ccc(N2C(=O)c3n[nH]c(-c4cccs4)c3C2c2ccc(OC)cc2OC)cc1", "note": "(centres undefined)", "Potency": "active: 23.1 µM"}, {"smiles": "c1ccc(CCNC2CCCCCC2)cc1", "Potency": "inconclusive: 25.9 µM [inhibitor, single point]"}, {"smiles": "C[CH2][Hg][S]c1ccccc1C(=O)O", "Potency": "active: 0.411 µM"}, {"smiles": "O=C(Cc1cccs1)N1Cc2ccccc2-n2nncc2C1", "activity change, negative = growth inhibition": "inactive: -14.6%"}, {"smiles": "COC(=O)[C@@H]1C[C@@]1(C)[C@@H](NP(=O)(c1ccccc1)c1ccccc1)c1ccccc1", "Potency": "inconclusive: 18.4 µM [inhibitor, single point]"}, {"smiles": "O=C(CNC(=O)c1cccc(S(=O)(=O)N2CCc3ccccc32)c1)Nc1ccccc1Br", "Potency": "inconclusive: 20.6 µM [inhibitor, partial curve]"}, {"smiles": "N#CC(O[C@@H]1OC(COC2OC(CO)C(O)C(O)[C@@H]2O)C(O)C(O)C1O)c1ccccc1", "note": "(some centres undefined)", "activity change, negative = growth inhibition": "inactive: -4.73%"}, {"smiles": "CC(Sc1ncnc2sccc12)C(=O)Nc1ccc(S(=O)(=O)N2CCOCC2)cc1", "note": "(centres undefined)", "Potency": "inconclusive: 20.6 µM [inhibitor, single point]"}]}]}
